Laboratory results from PubChem BioAssay AID1468 (National Center for Advancing Translational Sciences (NCATS), 2008).
Among all 280,000 compounds or so, about 1,100 (0.39%) were called active. The inconclusive results got no clear call from the source; some entries with a clear call stand among them for comparison. The call rests on the fitted dose curve; in most records, active means well fitted inhibition curve with a large enough effect; inconclusive means small, poorly fitted or top-dose-only effect, or effect the other way; inactive means flat fitted curve, though single readings scatter. A potency beside an inconclusive call is a rough fit, not a confirmed value.

Biological target: Microtubule-associated protein tau (Homo sapiens) (UniProt P10636)
Assay: qHTS for Inhibitors of Tau Fibril Formation, Fluorescence Polarization; further: nearly all actives have a fitted effect of over 55% in size
Conditions: K18 P301L tau heparin fibrillization, Alexa594 FP, 6 h; series mostly up to 57.7 µM; activity, negative = inhibition: at the top concentration
Method in brief: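 Read-out: fluorescence polarization of Alexa 594-labeled tau (0.24 uM), 555 nm excitation, 632 nm emission. Mixtures held 15 uM unlabeled K18 P301L, compound and 20 uM heparin, pH 7 acetate buffer, incubated 6 hr at 37 C.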
On the % scale 0 is the no-effect control and ±100 the full control effect; potency means the concentration at half of the fitted maximal effect; tags describe the fitted curve by direction and shape.

UniProt P10636, sequence (P10636 whole entry, looked up): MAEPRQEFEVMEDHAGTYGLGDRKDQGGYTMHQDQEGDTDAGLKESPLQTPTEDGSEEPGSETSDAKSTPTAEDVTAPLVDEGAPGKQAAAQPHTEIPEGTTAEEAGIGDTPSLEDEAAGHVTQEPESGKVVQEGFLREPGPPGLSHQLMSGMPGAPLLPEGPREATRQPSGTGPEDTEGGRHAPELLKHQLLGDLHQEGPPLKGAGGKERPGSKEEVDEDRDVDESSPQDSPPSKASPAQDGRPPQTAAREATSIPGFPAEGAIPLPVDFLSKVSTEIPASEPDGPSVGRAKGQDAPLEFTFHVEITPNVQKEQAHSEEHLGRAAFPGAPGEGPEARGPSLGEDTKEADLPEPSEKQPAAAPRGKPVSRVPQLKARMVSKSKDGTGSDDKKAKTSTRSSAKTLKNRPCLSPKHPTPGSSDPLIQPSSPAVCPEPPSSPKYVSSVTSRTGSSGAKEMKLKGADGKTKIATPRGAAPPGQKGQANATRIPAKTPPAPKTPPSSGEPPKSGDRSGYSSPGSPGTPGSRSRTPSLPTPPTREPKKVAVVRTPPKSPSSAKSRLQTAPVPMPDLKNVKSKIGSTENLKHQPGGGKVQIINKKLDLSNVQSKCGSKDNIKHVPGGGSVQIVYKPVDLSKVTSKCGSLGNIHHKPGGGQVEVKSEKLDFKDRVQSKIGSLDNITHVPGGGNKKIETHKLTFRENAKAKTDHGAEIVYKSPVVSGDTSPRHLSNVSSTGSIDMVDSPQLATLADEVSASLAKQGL

Potency, inconclusive:
CCOC(=O)CSc1nc2ccc(NC(=O)c3ccccc3)cc2s1 31.6 µM [inhibitor, single point]
COc1cc(-c2nnc(SCCOc3ccc(C)c(Cl)c3)o2)cc(OC)c1OC 39.8 µM [inhibitor, partial curve]
CCc1ccc(C(=O)Nc2ccc3nn(-c4ccc(C)c(Cl)c4)nc3c2)cc1 10 µM [inhibitor, partial curve]
CC(=O)COC(=O)c1cc(-c2ccc(C)cc2)nc2ccccc12 28.2 µM [inhibitor, partial curve, poor fit]
Cc1ccc2cccc(NC(=O)C(C)(C)Oc3ccc(Br)cc3)c2n1 31.6 µM [inhibitor, single point]
CCOc1ccc(NC(=O)CSc2nc(-c3ccc(F)cc3)cc(C(F)(F)F)c2C#N)cc1 5.62 µM [inhibitor, partial curve]
Cc1cc(=O)n(-c2ccc(C(=O)O)cc2)[nH]1 7.94 µM [inhibitor, partial curve, poor fit]
O=C(CNS(=O)(=O)c1cccc(Cl)c1)OCc1csc(-c2ccccc2)n1 0.112 µM [inhibitor, full curve, poor fit]
Cc1ccc(-c2[nH]nc3c2C(c2ccoc2)C(C#N)=C(N)O3)cc1C (stereo unspecified) 25.1 µM [inhibitor, partial curve]
O=C(CCn1cnc2ccccc2c1=O)Nc1ccc(Cl)c(Cl)c1 11.2 µM [inhibitor, partial curve]
CC(C)Nc1nc(Cl)nc(N(C#N)CN2C(=O)c3ccccc3S2(=O)=O)n1 17.8 µM [inhibitor, partial curve]
COc1cccc(/C=C2\Sc3ccc(C(=O)NCc4cccnc4)cc3N(C)C2=O)c1 5.01 µM [inhibitor, full curve, poor fit]
N#CC(C#N)=Cc1ccc(OCC(=O)N2CCOCC2)cc1 31.6 µM [inhibitor, single point]
c1csc(-c2nc3c4ccccc4c4ccccc4c3[nH]2)c1 6.31 µM [activator, full curve, poor fit]
O=C(Cc1c(F)cccc1Cl)NC1=NCCS1 3.98 µM [inhibitor, single point]
CCc1ccc(OCC(=O)NC(NC(=S)Nc2ccccc2OC)C(Cl)(Cl)Cl)cc1 (stereo unspecified) 7.94 µM [inhibitor, partial curve, poor fit]
CCC1=C/C(=C/N(C)c2ccccc2)C(=O)S1 39.8 µM [inhibitor, single point]
NC(=O)CC(NC(=O)Cc1ccc(Br)cc1)c1ccc(NCCc2ccc(F)cc2)c([N+](=O)[O-])c1 (stereo unspecified) 12.6 µM [inhibitor, partial curve]
CCOc1ccc(-c2cc(CCCC(=O)Nc3cccc(OC)c3)no2)cc1 2.82 µM [inhibitor, full curve, poor fit]
CNC(=S)N(CCc1c(C)[nH]c2ccc(Cl)cc12)Cc1cccs1 3.55 µM [activator, full curve, poor fit]
CCCOc1ccc(OC(=O)c2sc3ncn(Cc4cccc(F)c4)c(=O)c3c2C)cc1 20 µM [inhibitor, partial curve]
Cc1cc(C)c(OCC(O)CNC(C)(C)C)c(C)c1 (stereo unspecified) 15.8 µM [inhibitor, partial curve, poor fit]
CCOC(=O)c1cccc(NC(=O)CC(c2ccc(F)cc2)N2Cc3ccccc3C2=O)c1 (stereo unspecified) 0.126 µM [inhibitor, full curve, poor fit]
CN(c1ccccc1)S(=O)(=O)c1ccc(NC(=O)c2ccccc2)cc1 22.4 µM [inhibitor, partial curve]
Cc1ccc(NC(=O)c2ccc3nc(Cc4ccccc4)oc3c2)cc1F 20 µM [inhibitor, single point]
Cc1ccc(C)c(OCCOCCn2c(-c3ccc(Br)cc3)nc3ccccc3c2=O)c1C 17.8 µM [inhibitor, partial curve, poor fit]
Cc1ccc2[nH]c(CSc3nnc(NC(=O)COc4ccccc4F)s3)cc(=O)c2c1 39.8 µM [inhibitor, single point]
CC1(C)NC(=O)N(CCCCOc2ccc3c(c2)CCC3)C1=O 39.8 µM [activator, single point]
CC(=O)c1ccc(N2CCN(S(=O)(=O)c3cccc(S(=O)(=O)N4CCOCC4)c3)CC2)cc1 0.1 µM [inhibitor, full curve, poor fit]
COc1cccc(-c2nc(SCc3cc(=O)c4cc(Cl)ccc4[nH]3)n[nH]2)c1 22.4 µM [inhibitor, partial curve]
O=C(Nc1cccc(-c2nc3ccccc3s2)c1)c1ccc2c(c1)OCO2 25.1 µM [inhibitor, partial curve]
CS(=O)(=O)c1ncc(N(Cc2ccccc2)Cc2ccco2)c(C(=O)Nc2cccc(C(F)(F)F)c2)n1 17.8 µM [inhibitor, partial curve, poor fit]
COC(=O)c1cccc(S(=O)(=O)N(Cc2ccco2)Cc2cc3ccc(OC)cc3[nH]c2=O)c1 39.8 µM [inhibitor, single point]
CC(=O)Nc1cccc(-c2cc(-c3c(Cl)cccc3Cl)no2)c1 35.5 µM [inhibitor, single point]
O=C1C2CCCN2C(c2ccccc2)N1c1ccc(F)cc1 (stereo unspecified) 0.0251 µM [inhibitor, full curve, poor fit]
Cc1[nH][nH]c(=O)c1C(c1ccc(-c2ccc(Cl)cc2)o1)c1c(C)[nH][nH]c1=O 22.4 µM [inhibitor, partial curve]
COc1ccc(NS(=O)(=O)c2cccc(C(=O)N/N=C/c3cn(-c4ccccc4)nc3-c3ccccc3)c2)cc1 35.5 µM [inhibitor, single point]
CC(=O)Nc1ccc(S(=O)(=O)Nc2cc(C)c(-n3nc4ccccc4n3)cc2O)cc1 15.8 µM [inhibitor, partial curve]
NC1=NN(c2cccc(C(=O)O)c2)C(=O)C1 17.8 µM [inhibitor, partial curve]
O=C(CCN1CCc2ccccc2CC1)c1ccc2c(c1)OCCO2 3.98 µM [activator, full curve]
COc1ccc(C(=O)c2oc3ccccc3c2NC(=O)COc2c(C)cc(C)cc2C)cc1 17.8 µM [inhibitor, partial curve]
Cc1cc(C(=O)OC(C(=O)Nc2cccc(C(F)(F)F)c2)c2ccccc2)c(C)o1 (stereo unspecified) 14.1 µM [inhibitor, partial curve]
Cc1cccc(NC(=O)CSc2nc3c(oc4ccccc43)c(=O)n2C(C)C)c1 25.1 µM [inhibitor, single point]
COCCNC(=O)CCCn1c(SCC(=O)Nc2cccc(C)c2)nc2c(sc3ccccc32)c1=O 35.5 µM [inhibitor, single point]
CCOC(=O)c1c(-c2cccc(N)c2)cn2ccccc12 0.0282 µM [activator, full curve, poor fit]

Potency, active:
O=C1C(Cl)=C(N2CCCCC2)C(=O)N1c1ccccc1Cl 20 µM
Cc1ccc(-n2sc3ccccc3c2=O)cc1S(=O)(=O)N1CCCCC1 31.6 µM
N#CC(C#N)=c1ccc2c(c1)NC1(CCCCC1)N=2 25.1 µM

activity, negative = inhibition, inactive:
CCCCN(CCCC)CCNC(=O)CSCc1ccc(C)cc1 0.13%
Cc1ccc(NC(=O)CCC(=O)OC(C(=O)c2ccc(C)c(C)c2)c2ccccc2)c(C)c1 (stereo unspecified) 2.19%
COc1cc(/C=C2\SC(=S)NC2=O)ccc1OS(=O)(=O)c1ccccc1 8.63%
CC1CN(C(=S)c2cccc([N+](=O)[O-])c2)CC(C)O1 (stereo unspecified) -7.45%
CC(=O)N(c1ccccc1)c1nc(/C=C/C(=O)Nc2c(C)cc(C)cc2C)cs1 9.16%
C=CCc1cc(/C=C2/NC(=O)NC2=O)cc(OCC)c1O 8.51%
N#Cc1nc(COc2ccc(Cl)cc2)oc1N1CCCCCC1 -2.47%
CC(=O)O[C@@]1(C(C)=O)CCC2C3CC(C)C4=CC(=O)CC[C@@]4(C)C3CC[C@]21C (stereo partly specified) -2.54%
CCc1nnc(NC(=O)c2cccc(S(=O)(=O)N(C)c3ccccc3)c2)s1 12.8%
NCCCCNS(=O)(=O)c1cccc2c(Cl)cccc12 3.64%
CCCCCn1c(=O)[nH]c2cc(C(=O)NCc3ccc(C)cc3)ccc2c1=O -14.2%
O=c1c2c(nc3nc(COc4ccccc4)[nH]n13)CCC2 -1%
Cc1cc(C)c(NC(=O)CSc2nc(=O)n(Cc3ccco3)c3c2CCC3)c(C)c1 0.533%
Fc1ccccc1N1CCN(CC2CC3C=CC2C3)CC1 (stereo unspecified) -5.91%
CCOc1ccc(-c2nonc2NC(=O)c2ccccc2C)cc1 -5.7%
COc1cc(/C=C2/NC(=O)N(Cc3ccccc3F)C2=O)cc(OC)c1OC 3.07%
Cn1c(=O)[nH]c(=O)c2c1nc(N1CCN(c3cccc(Cl)c3)CC1)n2CCCc1ccccc1 1.75%
CCn1c(SCC(=O)Nc2ccc3c(c2)OCCO3)nnc1-c1ccco1 2.25%
